# ChEMBL document CHEMBL4888484, “Replenishing the malaria drug discovery pipeline: Screening and hit evaluation of the MMV Hit Generation Library 1 (HGL1) against asexual blood stage Plasmodium falciparum ,using a nano luciferase reporter read-out” (2022)
# About 540 (0.36%) of roughly 150,000 compounds showed an effect of 50% or more. Some of the results follow.
# Tested on: Plasmodium falciparum
# Experiment: Primary screen in NF54 nanoGlo assay, in single point, at 2uM, 72h; a lower Z score goes with more inhibition
# Format: functional, Erythrocyte
# Settings: timepoint 72 hour
Compound,% Inhibition [%],Z score
O=S(=O)(c1ccc(CNc2nc3c(F)cccc3o2)cc1)N1CCCC1,4,-0.76
Cc1cc(C)cc(-n2nc(C(=O)NCc3ccncc3)c(=O)n(Cc3cccc(Cl)c3)c2=O)c1,-12,1.24
Cc1nn(CC(=O)NCCNC(=O)c2nc(-c3ccccc3)no2)c(C)c1Br,12,-1.2
O=C(C1CCCC1)N1CCN(c2nc3cc(Cl)ccc3c3nnc(C4CCCCC4)n23)CC1,-13,1.57
C#CCNC1(C(=O)N(CC)CC)CCCCC1,3,-0.4
COCCN1[C@@H]2CN(C(=O)Nc3cccc(OC)c3)C[C@@H]2OCCS1(=O)=O,2,-0.31
O=C(NCCCS(=O)(=O)Cc1ccccc1)c1nc(N2CCCCC2)ncc1Cl,-9,1.78
CC#CCCNC(=O)NCc1ccco1,6,-0.7
O=C(Cc1cncc(O)c1)N1CCC[C@H]1C(F)(F)F,1,-0.16
O=C(N[C@H]1CCCCNC1=O)c1cc(N2CCCCCCCC2)ccn1,7,-0.93
CCNC(=O)C1(NCc2csc(CNC(=O)c3ccccc3)n2)CCCC1,6,-0.65
Cn1cc(C(=O)NCCc2nc3c(c(C(F)(F)F)n2)COCC3)nn1,-6,1.12
CCN(C(=O)c1nn2cc(C)cnc2c1Cl)[C@H]1COC[C@@H]1O,-18,2.52
C[C@@H](CCc1ncnn1CC(F)(F)F)N1CCOCC1,-3,0.51
CCn1cc(C(=O)C(=O)N2Cc3cc(F)ccc3C[C@@H]2C)cn1,-7,0.92
Cc1nn(C)cc1CCC(=O)NC[C@H](C)Oc1ccc(Cl)cc1,-7,1.07
Cc1nc(N2CCCC2)nc(C)c1NC(=O)c1ccncc1,-5,0.82
O=C(NC1CCC1)c1cccc(S(=O)(=O)NC[C@H]2CCCOC2)c1,-18,2.42
O=C(NC[C@@H](c1ccco1)N1CCCC1)c1cccc(N2C(=O)CCS2(=O)=O)c1,0,0
CC(OCCc1ccccc1)C(=O)N1CC2CC2C1 (stereo not given),4,-0.53
CC(C)(C)c1nc(NS(=O)(=O)Cc2c(Cl)cccc2Cl)no1,-10,1.04
O=C(NC1CC1)c1cccc2ccccc12,0,0.03

Compound,% Inhibition [%],Z score
Cc1ccccc1C(CC(=O)OCC(=O)N1c2ccccc2OCC1c1ccccc1)NC(N)=O (stereo not given),-7,1.09
O=C1NC[C@@H]2CCC[C@@H](CCOc3ccccc3C(=O)N3CCN(Cc4ccc(F)c(F)c4)C[C@@H]13)O2,-6,0.88
COC(=O)C[C@H](NC(=O)c1ccc2cc[nH]c2c1)C1CC1,7,-0.68
CCS(=O)(=O)N(CCN1CCCCC1)C1CN(S(=O)(=O)c2cccs2)C1,-11,2.11
COc1cccc(CC(=O)N2CCCC[C@H](Nc3ncccc3C(N)=O)C2)c1,-6,0.85
O=S(=O)(CCC1CC1)Nc1ccc(-c2ccccn2)cn1,-2,0.33
COc1ccc(Cl)cc1NC(=O)Cn1c(-c2ccccc2)nc2c(c1=O)CN(C)CC2,-10,1.3
Cc1cn(C)nc1CN1CCC[C@H](N2CCNCC2=O)C1,1,-0.13
C[C@H](C(=O)NCc1cc(F)cc(F)c1)C1CCOCC1,32,-0.33
CC[C@H](C)NC(=O)Nc1cc(C)ns1,-1,0.09
CC(N=C(NCCCn1cccn1)NCc1ccco1)C1CCCO1 (stereo not given),-1,0.09
CN(C)Cc1nc(C(=O)NCc2csc3c2CCCC3)cs1,13,-1.67
Cn1cc2c(n1)c(=O)n(Cc1ccc(F)cc1)c(=O)n2CC(=O)N1CCN(c2ccccc2F)CC1,0,0.02
CC(=O)N1CCN(C(=O)Cc2ccccc2C)CC[C@H]1c1nc(C)no1,-11,1.46
COC(=O)C(c1cccnc1)N1CCC(CC(C)C)C1 (stereo not given),2,-0.25
Cc1cc(C)c2c(NC(=O)Cn3ncc(N(C)C)cc3=O)nn(C)c2n1,-12,1.58
O=C(CN1C(=O)c2ccccc2Oc2ncccc21)N1CCCCC1,-6,1.11
CCn1ncc(Br)c1C(=O)N(C)c1ncccc1OC,11,-2.07
O=C(NCc1cccc(-n2ccnc2)c1)NC1CCC(O)CC1 (stereo not given),13,-1.74
O=C(Nc1ccccc1F)c1ccnc(-c2ccsc2)c1,5,-0.65
CCCC(=O)c1ncccc1N1CCO[C@@H](COC)C1,7,-1.3
O=C1C[C@H](NC(=O)CCc2cn3ccccc3n2)c2ccccc2N1,-5,0.97

Compound,% Inhibition [%],Z score
CCCc1[nH]nc(-c2ccc(C)cc2C)c1NC(=O)Cc1ccc(F)cc1,-6,0.71
CCn1c(CC2CCN(C(=O)CCc3cnccn3)CC2)nn(C)c1=O,-2,0.44
Cc1cccc(N2CCC(NCC3CCOCC3)CC2)c1C,-7,1.48
CCN1CC[C@H]1C(=O)NC(C)(C)CCNC(=O)OC(C)(C)C,16,-2.05
CCC(CC)[C@H](CNC(=O)Nc1cc(S(C)(=O)=O)ccc1Cl)N1CCCC1,7,-0.92
Cc1ccnc(CNC(=O)N[C@@H]2CCCCC[C@H]2O)c1,-8,1.08
CN(C)c1nc2cc(NC(=O)Cn3cnnn3)ccc2o1,-14,1.69
CCc1cc(N2C[C@@H](C)N(CCO)[C@@H](C)C2)nc(C)n1,-7,0.91
NC(=O)CN1CCC2(O)CCCCC2[C@@H]1c1ccc2c(c1)OCO2 (stereo not given in full),1,-0.13
CC(C)Cc1cc(CN(C)[C@H]2CCN(C)C2)n[nH]1,-9,1.15
Cc1ccccc1Cn1c(-c2ccccn2)nnc1N1CCCC1,5,-1
Cc1cc(C)n(CC2(c3nc4c([nH]3)CCCNC4=O)CC2)n1,8,-1.06
Cc1csc(CNC(=O)C2(C)CC2F)n1 (stereo not given),-8,1.2
O=C(N1CCC(Oc2ncccc2Br)CC1)C1(c2ccccc2)CCOCC1,-9,1.65
CN1CCN(S(=O)(=O)N2CC[C@H](C3CCCCC3)C2)CC1,-22,2.32
CCOC(=O)c1nnsc1NC(=O)Nc1ccccc1OC,7,-0.85
COC(=O)c1cc(NS(C)(=O)=O)ccc1O,-3,0.39
O=C(NC1CCCC1)[C@@H](c1ccc(Cl)cc1)N(Cc1ccccc1)c1ccccc1,-5,0.73
O=C(Cc1cccc(OC(F)(F)F)c1)NCc1cc2n(n1)CCCO2,-15,2.38
NC[C@@](O)(c1cccc(C(F)(F)F)c1)C(F)(F)F,-1,0.18
O=C(NCc1cccnc1N1CCC[C@H](O)C1)c1ccccn1,-13,1.56
COCc1nc2n(n1)CCCC2NC1CCCN(C(C)C)C1=O (stereo not given),-4,0.58

Compound,% Inhibition [%],Z score
Cc1ccc(CN2CCN(C/C=C/c3ccco3)C[C@@H]2CCO)o1,6,-0.83
Cc1nocc1NC(=O)N[C@@H]1CN(C(=O)OC(C)(C)C)C[C@@H]1O,-15,1.61
O=C(NCc1ccc2c(c1)CCCC2)NCc1nnn[nH]1,12,-1.57
C[C@@H](c1ccc(-c2nc(C3CC3)n[nH]2)cc1)N1CCCCC1,-4,0.57
Cc1ccc(-c2noc3c(N(c4ccc(C)c(Cl)c4)c4nc(C)nc5c(-c6ccc(C)cc6)noc45)nc(C)nc23)cc1,-12,1.88
Cc1cc(NC(=O)N[C@H]2CCCn3ncnc32)n(C)n1,-8,1.02
Cc1ccnc([C@@H](NC(=O)Nc2ccc3c(c2)nnn3C)C2CC2)c1,-4,0.89
CN1C(=O)C[C@H](NC(=O)N(C)C2CCCC2)C1=O,-2,0.27
CN(C)C[C@H]1CN(CCOCC(F)(F)F)CCO1,-12,1.39
CN1CCN2C[C@@H](NC(=O)c3ccc(CCC(C)(C)O)cc3)C[C@H]2C1,-1,0.23
N#Cc1ccc(CN2CCC(N3CCN(c4cc(C(F)(F)F)ccn4)CC3)CC2)s1,1,-0.09
Cc1ccc2cc(-c3noc(CCC(=O)Nc4ccccc4C(C)C)n3)c(O)nc2c1,-2,0.36
CNc1nc2c(s1)[C@@H](c1cccc(OC)c1OCc1ccc(F)cc1)CC(O)=N2,6,-0.8
CC(C)(C)c1ncc(CNc2ccc3oc(C(N)=O)nc3c2)cn1,12,-1.36
COc1ccc(NC(=O)c2cc(=O)[nH]c3ccccc23)cc1S(=O)(=O)N1CCCCC1,-8,1.26
Cc1ccccc1-n1ncc2c1CC(C)(C)C[C@@H]2NC(=O)c1nonc1C,5,-0.62
CON(C)C(=O)Cc1c(C)nn(C)c1C,-2,0.25
CC(C)N1CCC(CNC(=O)C2CCCCC2)CC1,-12,1.81
CCN1CCN(C2=NCCN2S(=O)(=O)c2cc(C)c(C)cc2C)CC1,-18,2.07
